# Reference: PubChem BioAssay AID2546 (National Center for Advancing Translational Sciences (NCATS), 2010)
# In all, about 310,000 compounds went through this assay and about 11,000 (3.5%) were called active. The shares of active, inactive and inconclusive entries below differ from those in the screen. Calls follow the shape of the dose curve; as a rule, active = well fitted inhibition curve with a large enough effect; inconclusive = small, poorly fitted or top-dose-only effect, or effect the other way; inactive = flat fitted curve, though single readings scatter. Potencies of inconclusive entries are left out as doubtful fits.
# Assay: VP16 counterscreen qHTS for inhibitors of ROR gamma transcriptional activity;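 also: Gal4-VP16 expression switched on by copper sulfate through the metallothionein promoter; nearly all actives have a fitted effect of over 50% in size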
# Conditions: Drosophila S2 Gal4-VP16 UAS-luciferase, luminescence, 20 h; activity, negative = inhibition: at 53.6 µM (top of the series)
# % is scaled to controls: 0 for no effect and ±100 for the full control effect; potency is read from the fitted curve at half-maximal effect; tags tell the direction and shape of the fitted curve.
Compound,Potency,"activity, negative = inhibition"
COc1cccc(-c2csc(N3CCN(C(=S)Nc4ccc(Cl)cc4)CC3)n2)c1,"inconclusive [inhibitor, single point]",
O=C(CSc1nnc(C2COc3ccccc3O2)o1)N1CCCC1 (stereo not drawn),,inactive: 5.92%
CC(C)C(=O)Nc1nnc(-c2ccccc2)o1,"inconclusive [inhibitor, single point]",
O=c1c2cc3c(cc2[nH]c(=S)n1C1CCN(Cc2ccccc2)CC1)OCO3,active: 3.55 µM,
O=C(CCCN1C(=O)/C(=C/c2ccccc2)SC1=S)NCCCn1ccnc1,active: 4.47 µM,
CC(C)C[C@@H](CC(=O)N[C@H](CC(=O)N[C@@H]1CCCC[C@H]1C(=O)N[C@H](CC(=O)N[C@@H](CCC(=O)O)CC(=O)O)CC(C)C)C(C)C)NC(=O)[C@@H]1CCCC[C@H]1N,,inactive: 5.19%
CC(=O)OCC(=O)[C@@]12OC3(CCCC3)O[C@@H]1C[C@H]1[C@@H]3CCC4=CC(=O)C=C[C@]4(C)[C@@]3(F)[C@@H](O)C[C@@]12C,,inactive: -8%
COc1ccc(S(=O)(=O)Nc2ccc3c(c2)n(C)c(=O)n3C)cc1OC,,inactive: -2.96%
COc1cccc(-c2nc(-c3ccc4c(c3)NC(=O)CO4)cs2)c1,"inconclusive [inhibitor, partial curve, poor fit]",
CCOc1ccc(C(NC(=O)c2ccco2)c2ccc(OC)c(OC)c2)cc1 (stereo not drawn),,inactive: 4.9%
COc1ccc(Br)cc1CNc1ccc(O)cc1,"inconclusive [inhibitor, single point]",
O=C1c2cccc3cccc(c23)C(=O)N1CCN1CCN(CC(O)COCc2ccc(Cl)cc2)CC1 (stereo not drawn),"inconclusive [activator, single point]",
O=C(O)c1cnn(-c2nc(-c3ccc(Cl)c(Cl)c3)cs2)c1C(F)(F)F,"inconclusive [inhibitor, partial curve, poor fit]",
Nc1nc(SCc2ccc(Cl)cc2Cl)ns1,"inconclusive [activator, single point]",
O=C1/C(=N\S(=O)(=O)c2cccs2)C([n+]2cccc(Cc3ccccc3)c2)=C([O-])c2ccccc21,"inconclusive [inhibitor, single point]",
COc1cccc(C(=O)CC(=O)C(=O)Nc2cc(OC)ccc2OC)c1,"inconclusive [inhibitor, single point]",
CCN(CC)Cc1c(O)ccc2c([N+](=O)[O-])c(C)n(-c3ccc(OC)cc3)c12,,inactive: -11%
CC1CCCN(C(=O)COC(=O)Cc2c(F)cccc2Cl)C1 (stereo not drawn),"inconclusive [inhibitor, single point]",
